Source: the supplement of paper PMC7826260
The other results are listed elsewhere or left out. One pool of 16,384 single-stranded DNAs met each Rep nickase domain in vitro for 1 h at 37 °C with 3 µM enzyme; only the middle of the 90-letter strands is printed. The score is log2 (uncut reads / reads without enzyme); more negative means more cut, near 0 not cut, and no call is made. Shares of all reads are compared; values above 0 arise when much of the pool is cut.

test system: T1, Rep nickase domain of maize striate mosaic virus; experiment: uncleaved DNA left, log2 of reads against the no-enzyme library (log2 ratio); higher = less cleavage (more negative = more Rep cleavage of the k-mer); sequences stand for … in CTCGTCCG…ACCGGAGA
T1 sequence (Rep 1-117, printed without the tag): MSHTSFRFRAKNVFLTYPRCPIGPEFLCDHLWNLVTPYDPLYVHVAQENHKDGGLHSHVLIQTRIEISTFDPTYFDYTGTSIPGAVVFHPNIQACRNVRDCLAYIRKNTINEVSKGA
Procedure: (§1)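 A pool of 90-nt single-stranded DNAs with seven random bases just before the constant AC of the nick site (name = the seven bases) was cut by 3 µM recombinant His6-SUMO-tagged Rep nickase domain (300 nM DNA, 50 mM HEPES pH 8.0, 50 mM NaCl, 1 mM MnCl2, 1 h, 37 °C, three replicates). Uncut DNA was amplified and sequenced.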

Row | Sequence | uncleaved DNA left (log2)
1 | TGCCATG | -0.434
2 | TCTACCA | -0.327
3 | AATAAGA | -0.995
4 | GGACTAA | 2.1
5 | GTGTAGC | 1.66
6 | TCTGAGG | 1.54
7 | TGAGGGG | 0.574
8 | GTTACGA | 1.28
9 | TTTCATG | -1.21
10 | CAATGGG | -0.958
11 | TAAGGAG | 0.542
12 | CTATGAC | -0.611
13 | ACTATAC | -0.882
14 | TGAATTT | -0.278
15 | AGTTCCC | 0.383
16 | ACTACGT | -0.507
17 | CCGCACA | -0.236
18 | CCAACTC | -0.424
19 | ATGAAAG | -1.18
20 | CCCACGC | -0.579

Row | Sequence | uncleaved DNA left (log2)
21 | GATTGAG | -0.514
22 | GTAGCTA | 1.32
23 | GACGTTT | 1.24
24 | CATTAGC | -1.21
25 | ATAAAGA | -1.19
26 | CAATAGT | -3.73
27 | ATGGCAC | -0.297
28 | GAAATAT | 1.1
29 | CTGAATA | -0.408
30 | ATTCGTT | -1.01
31 | AACCACC | -0.679
32 | TTCTAGC | -0.924
33 | GGGTTCC | 2.03
34 | GATTTAA | 1.4
35 | ACCTCAG | -1.17
36 | TCGTAAC | -0.356
37 | TTGGTGT | -0.812
38 | AGCCGAT | 0.959
39 | TCTCGGG | -0.145
40 | GACATGA | 1.51

test system: T2, Rep nickase domain of porcine circovirus 2; experiment: as above
T2 sequence (Rep 2-116, printed without the tag): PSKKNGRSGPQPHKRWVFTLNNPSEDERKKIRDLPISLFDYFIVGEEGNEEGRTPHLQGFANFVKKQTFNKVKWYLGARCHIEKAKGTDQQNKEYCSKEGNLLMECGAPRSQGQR
Procedure: as §1

Row | Sequence | uncleaved DNA left (log2)
41 | TGCCATG | 0.0352
42 | TCTACCA | -0.789
43 | AATAAGA | 0.178
44 | GGACTAA | 0.0157
45 | GTGTAGC | 0.151
46 | TCTGAGG | 0.18
47 | TGAGGGG | 0.257
48 | GTTACGA | 0.0836
49 | TTTCATG | 0.0294
50 | CAATGGG | 0.121
51 | TAAGGAG | 0.197
52 | CTATGAC | 0.0649
53 | ACTATAC | -0.021
54 | TGAATTT | -0.43
55 | AGTTCCC | -0.265
56 | ACTACGT | -0.734
57 | CCGCACA | 0.0275
58 | CCAACTC | 0.0221
59 | ATGAAAG | 0.226
60 | CCCACGC | 0.00716

Row | Sequence | uncleaved DNA left (log2)
61 | GATTGAG | 0.0895
62 | GTAGCTA | 0.0803
63 | GACGTTT | -0.292
64 | CATTAGC | 0.188
65 | ATAAAGA | 0.0886
66 | CAATAGT | -4.41
67 | ATGGCAC | 0.00259
68 | GAAATAT | -0.163
69 | CTGAATA | 0.121
70 | ATTCGTT | -2.87
71 | AACCACC | -0.429
72 | TTCTAGC | 0.361
73 | GGGTTCC | 0.162
74 | GATTTAA | 0.00449
75 | ACCTCAG | 0.0522
76 | TCGTAAC | -0.121
77 | TTGGTGT | 0.012
78 | AGCCGAT | 0.012
79 | TCTCGGG | -0.0761
80 | GACATGA | 0.205

test system: T3, Rep nickase domain of tomato golden mosaic virus; experiment: as above
T3 sequence (Rep 1-124, printed without the tag): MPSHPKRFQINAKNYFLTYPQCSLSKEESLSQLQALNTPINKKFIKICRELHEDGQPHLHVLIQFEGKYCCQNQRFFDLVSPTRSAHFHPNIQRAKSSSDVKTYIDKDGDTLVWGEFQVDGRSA
Procedure: as §1

Row | Sequence | uncleaved DNA left (log2)
81 | TGCCATG | -0.0436
82 | TCTACCA | -0.151
83 | AATAAGA | 0.0424
84 | GGACTAA | -0.00534
85 | GTGTAGC | 0.238
86 | TCTGAGG | 0.202
87 | TGAGGGG | -0.0244
88 | GTTACGA | -0.00701
89 | TTTCATG | -0.222
90 | CAATGGG | -0.0488
91 | TAAGGAG | 0.133
92 | CTATGAC | 0.0321
93 | ACTATAC | 0.0489
94 | TGAATTT | -0.0631
95 | AGTTCCC | -0.0308
96 | ACTACGT | 0.0734
97 | CCGCACA | -0.0606
98 | CCAACTC | -0.0475
99 | ATGAAAG | 0.0789
100 | CCCACGC | -0.0317

Row | Sequence | uncleaved DNA left (log2)
101 | GATTGAG | 0.0336
102 | GTAGCTA | 0.124
103 | GACGTTT | 0.0104
104 | CATTAGC | -0.0064
105 | ATAAAGA | -0.0287
106 | CAATAGT | -3.87
107 | ATGGCAC | 0.123
108 | GAAATAT | 0.0294
109 | CTGAATA | -0.00333
110 | ATTCGTT | -0.114
111 | AACCACC | -0.0594
112 | TTCTAGC | 0.128
113 | GGGTTCC | 0.0246
114 | GATTTAA | 0.207
115 | ACCTCAG | -0.011
116 | TCGTAAC | -0.0394
117 | TTGGTGT | -0.0596
118 | AGCCGAT | 0.113
119 | TCTCGGG | -0.0616
120 | GACATGA | -0.0192

test system: T4, Rep nickase domain of tomato yellow leaf curl virus; experiment: as above
T4 sequence (Rep 1-136, printed without the tag): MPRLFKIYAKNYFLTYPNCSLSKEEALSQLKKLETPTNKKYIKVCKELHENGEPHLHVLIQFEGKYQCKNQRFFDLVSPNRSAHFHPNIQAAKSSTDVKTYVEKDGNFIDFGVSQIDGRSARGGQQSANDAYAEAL
Procedure: as §1

Row | Sequence | uncleaved DNA left (log2)
121 | TGCCATG | 0.00467
122 | TCTACCA | -0.0221
123 | AATAAGA | -0.00648
124 | GGACTAA | 0.0365
125 | GTGTAGC | 0.138
126 | TCTGAGG | -0.183
127 | TGAGGGG | -0.0584
128 | GTTACGA | 0.00798
129 | TTTCATG | -0.107
130 | CAATGGG | -0.0156
131 | TAAGGAG | 0.0115
132 | CTATGAC | 0.0566
133 | ACTATAC | -0.0963
134 | TGAATTT | 0.0442
135 | AGTTCCC | 0.0168
136 | ACTACGT | -0.0348
137 | CCGCACA | -0.0497
138 | CCAACTC | -0.0894
139 | ATGAAAG | 0.13
140 | CCCACGC | -0.119

Row | Sequence | uncleaved DNA left (log2)
141 | GATTGAG | 0.121
142 | GTAGCTA | -0.00959
143 | GACGTTT | -0.088
144 | CATTAGC | 0.0265
145 | ATAAAGA | -0.107
146 | CAATAGT | -0.616
147 | ATGGCAC | 0.138
148 | GAAATAT | 0.0696
149 | CTGAATA | 0.133
150 | ATTCGTT | -0.0448
151 | AACCACC | -0.0383
152 | TTCTAGC | 0.0908
153 | GGGTTCC | 0.147
154 | GATTTAA | 0.161
155 | ACCTCAG | -0.0188
156 | TCGTAAC | -0.173
157 | TTGGTGT | -0.0816
158 | AGCCGAT | -0.0798
159 | TCTCGGG | -0.195
160 | GACATGA | 0.00332

test system: T5, Rep nickase domain of wheat dwarf virus; experiment: as above
T5 sequence (Rep 1-137, printed without the tag): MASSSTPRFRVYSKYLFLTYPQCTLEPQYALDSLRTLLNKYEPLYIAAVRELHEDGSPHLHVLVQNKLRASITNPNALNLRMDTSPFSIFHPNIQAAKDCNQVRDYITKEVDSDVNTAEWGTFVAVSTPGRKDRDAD
Procedure: as §1

Row | Sequence | uncleaved DNA left (log2)
161 | TGCCATG | -0.0263
162 | TCTACCA | -0.137
163 | AATAAGA | -0.00983
164 | GGACTAA | -0.0122
165 | GTGTAGC | 0.093
166 | TCTGAGG | 0.0309
167 | TGAGGGG | 0.0429
168 | GTTACGA | 0.0945
169 | TTTCATG | -0.186
170 | CAATGGG | -0.229
171 | TAAGGAG | 0.0714
172 | CTATGAC | -0.0331
173 | ACTATAC | -0.0399
174 | TGAATTT | -0.0656
175 | AGTTCCC | 0.043
176 | ACTACGT | 0.00249
177 | CCGCACA | 0.0234
178 | CCAACTC | -0.0387
179 | ATGAAAG | -0.0645
180 | CCCACGC | -0.061

Row | Sequence | uncleaved DNA left (log2)
181 | GATTGAG | -0.0286
182 | GTAGCTA | 0.12
183 | GACGTTT | -0.0487
184 | CATTAGC | -0.0105
185 | ATAAAGA | -0.131
186 | CAATAGT | -3.52
187 | ATGGCAC | 0.0626
188 | GAAATAT | -0.0347
189 | CTGAATA | 0.0602
190 | ATTCGTT | -0.0522
191 | AACCACC | 0.047
192 | TTCTAGC | 0.0616
193 | GGGTTCC | 0.119
194 | GATTTAA | 0.14
195 | ACCTCAG | -0.0589
196 | TCGTAAC | -0.103
197 | TTGGTGT | -0.0705
198 | AGCCGAT | -0.0109
199 | TCTCGGG | -0.164
200 | GACATGA | 0.19
